# This is one part of the list. Values were computed here from the reads of four pooled replicates and scatter widely.
# Biological target: T1, Pho4 (S. cerevisiae) (UniProt P07270)
# T1 sequence: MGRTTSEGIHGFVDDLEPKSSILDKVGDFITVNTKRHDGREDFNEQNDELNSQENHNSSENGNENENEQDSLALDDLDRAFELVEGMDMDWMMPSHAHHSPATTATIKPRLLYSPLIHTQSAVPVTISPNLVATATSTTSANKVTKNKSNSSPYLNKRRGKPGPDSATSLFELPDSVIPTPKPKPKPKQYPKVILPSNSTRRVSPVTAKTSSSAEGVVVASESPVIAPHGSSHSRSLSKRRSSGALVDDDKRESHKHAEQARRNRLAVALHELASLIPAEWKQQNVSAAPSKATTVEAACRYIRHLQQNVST
# Test: relative binding free energy (BET-seq); higher = weaker binding
# Conditions: reference: library average
row,Sequence,relative binding free energy [kcal/mol]
1,TTGTACACGTGCGTAA,0.08
2,AGGGACACGTGGAGAA,0.13
3,GGTCTCACGTGTATGG,0.16
4,AGGGTCACGTGGAGCA,0.11
5,TAATGCACGTGTGCTG,-0.01
6,GTGTACACGTGGGGCG,0.04
7,GAGATCACGTGTGGGA,0.24
8,TAACGCACGTGTTTGT,-0.15
9,TGATTCACGTGTTGAT,0.2
10,AAGGTCACGTGAATTA,0.26
11,CTTTTCACGTGGTGAT,0.32
12,TAGCACACGTGTTTTG,-0.05
13,GTAGGCACGTGGGGAA,-0.17
14,ATTTACACGTGAGTGA,0.14
15,ACTTACACGTGAGGGT,0.35
16,GACAGCACGTGGGGTA,-0.23
17,GGGCCCACGTGGTAGT,-0.05
18,GGGGACACGTGGGGCC,-0.09
19,TCGAGCACGTGTGCGT,-0.11
20,GAATGCACGTGGGATT,0.09
21,ACGTACACGTGGGGTG,-0.19
22,TAACACACGTGGGTGT,-0.1
23,GAGGACACGTGTGTAG,0.07
24,GGCTTCACGTGGCGAG,0.29
25,ATGGGCACGTGCGGAC,-0.16

row,Sequence,relative binding free energy [kcal/mol]
1,AGGATCACGTGTAGGA,0.06
2,CAGATCACGTGGTATG,0.05
3,TTTCACACGTGAGGCG,0.28
4,GGAATCACGTGTAGAA,0.35
5,TAGGACACGTGGGACT,-0.04
6,TTGATCACGTGTATTT,0.14
7,TTACGCACGTGGGGGT,-0.23
8,TATATCACGTGCGGGT,0.09
9,TTTTACACGTGCGGTC,0.16
10,GTCTACACGTGGTATT,0.09
11,TACTGCACGTGGTGGA,0.03
12,AGGTTCACGTGTGCGC,0.22
13,AGCTTCACGTGAGGTT,0.32
14,AGGGGCACGTGACGGT,-0.03
15,GCTGGCACGTGTGTCG,-0.1
16,TGTGGCACGTGCATTT,-0.14
17,TTGCTCACGTGAACGG,0.43
18,TAAATCACGTGTTCGT,0.13
19,TGTGGCACGTGTGGGG,0.04
20,ATGCGCACGTGGAGTT,-0.03
21,CGTATCACGTGTAGTG,0.03
22,AGGGGCACGTGCCGAG,-0.2
23,TGGTACACGTGTGGGG,0.12
24,GGTTGCACGTGAAAGA,0.26
25,GGCTACACGTGGCAGG,0.18

row,Sequence,relative binding free energy [kcal/mol]
1,TGTCTCACGTGGAATG,0.15
2,GAGATCACGTGAGGGA,0.38
3,GTAGGCACGTGGAGAT,-0.07
4,GATCTCACGTGTGTTT,0.39
5,TAGCGCACGTGTGAAT,0.09
6,TAAATCACGTGGGTTT,-0.04
7,TGAGGCACGTGTTTTT,-0.01
8,TAGTGCACGTGCTGGG,-0.13
9,TGTGGCACGTGGTCTG,-0.14
10,ATAGGCACGTGAATGT,-0.05
11,TGTCACACGTGGTAAA,0.11
12,AGTCTCACGTGTGGAA,0.29
13,TGAAACACGTGTATGT,0.04
14,TGGGCCACGTGGTCGT,-0.21
15,TTGTCCACGTGTATAG,0.03
16,TAGTACACGTGTTCAT,0.16
17,ATCGTCACGTGGGTAT,-0.03
18,TTCCACACGTGGTTTG,0.14
19,GTAGTCACGTGGTTCT,0.02
20,GTATCCACGTGGGGAG,-0.05
21,GCTAACACGTGGTGGT,0.05
22,TGAGACACGTGTTCGG,-0.05
23,GTACGCACGTGGGTGG,-0.21
24,GACGGCACGTGAGGCG,0.13
25,TTGGGCACGTGGTACG,-0.25

row,Sequence,relative binding free energy [kcal/mol]
1,GCTATCACGTGTGGGT,0.15
2,TGCATCACGTGAGGGT,0.29
3,TGGAGCACGTGATGTC,0.13
4,TAATTCACGTGTCGGC,0.39
5,CGAGTCACGTGTGTTA,0.06
6,GTATGCACGTGGTGAC,-0.1
7,GGACTCACGTGGGTTA,0.1
8,TGGTGCACGTGTAAAT,0.19
9,AACTGCACGTGTATTT,0.13
10,GAAATCACGTGGGGTA,0.08
11,ATAATCACGTGGTTTC,0
12,GAGAGCACGTGTCGTT,0.01
13,ATATTCACGTGGATAT,0.13
14,TAGGACACGTGGTCAT,-0.03
15,TGGTGCACGTGAGCGA,0.15
16,TTGACCACGTGTAGGT,-0.17
17,TTTTCCACGTGATTGA,0.14
18,TGGCTCACGTGCAGTT,0.06
19,TTGTTCACGTGGTTCG,0.39
20,ATGGTCACGTGGGCTC,0.11
21,GGAATCACGTGAGGTG,0.47
22,AGGTACACGTGGTAGA,0.07
23,TTGATCACGTGCCCGG,0.36
24,CTTTCCACGTGTGTTG,-0.08
25,AGTGTCACGTGGGCAA,-0.07

row,Sequence,relative binding free energy [kcal/mol]
1,GCGTTCACGTGAAGTG,0.34
2,TTCTGCACGTGTGTGC,0.11
3,AGTCGCACGTGTGGTC,0.08
4,TTTGGCACGTGTGAGC,-0.12
5,TGGTACACGTGGGCGA,-0.19
6,TGAGTCACGTGTGGGG,0.18
7,TTTAGCACGTGATCTG,0.09
8,TGATCCACGTGTGTTG,0.04
9,CCGTTCACGTGTGGGA,0.31
10,GATGTCACGTGGCCGG,-0.02
11,AGGCACACGTGAGGGT,0.17
12,GTATTCACGTGTATAG,0.21
13,TTTGCCACGTGAATGG,0.08
14,CGTTACACGTGAATGT,0.33
15,GTTTACACGTGGCGTT,0.1
16,AGGCGCACGTGGGCGT,-0.3
17,GGTGGCACGTGGTATT,-0.06
18,AGCGTCACGTGAGGGG,0.21
19,TGTGGCACGTGTCCGG,-0.26
20,TTCCGCACGTGGTGTG,-0.09
21,TAGTACACGTGATTTG,0.22
22,TTAAACACGTGGTTTC,0.02
23,AACTGCACGTGAGGTT,0.19
24,TGGGACACGTGAGGAG,0.18
25,GTCGGCACGTGTAGTA,-0.03

row,Sequence,relative binding free energy [kcal/mol]
1,TGTTACACGTGGTAGG,0.11
2,GGGATCACGTGGCGTG,0.01
3,ATACGCACGTGTGGGT,-0.06
4,GAGCTCACGTGAGGGA,0.36
5,AAGTGCACGTGGTGCT,-0.12
6,GTTATCACGTGCGGCA,0.3
7,TTGGGCACGTGTTCGT,-0.05
8,AGGCGCACGTGGTTAT,-0.08
9,TTCGTCACGTGGGTTA,0.01
10,CGGCGCACGTGATTGT,0.1
11,GGGGGCACGTGAAGGG,0.25
12,CTAGGCACGTGTAAGA,0.12
13,GAGTGCACGTGAATTT,0.38
14,TGCGGCACGTGACGTG,-0.12
15,TGAACCACGTGTGGGG,0.06
16,GTTATCACGTGGGCAT,0.08
17,TTCAGCACGTGGTGAC,-0.01
18,AGATTCACGTGGCGCG,0.27
19,GGGGACACGTGGAAGA,0.08
20,TGTGGCACGTGGAACT,-0.02
21,CGCGTCACGTGTCGGT,0.13
